Source: PubChem BioAssay AID1346428 (National Center for Advancing Translational Sciences (NCATS), 2018)
Where “and” joins values, the source holds several entries; their conditions need not be identical. Equal entries are not always repeated. Screen size: about 48,000 compounds; about 1,200 (2.5%) were called active. Inconclusive results (about 2%) are left out.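 How the source made its calls: active means activation of at least 60% and not above a set upper limit (about 1 call in 100 departs from these limits); inconclusive means activation of 40% to 60%, or above that upper limit; inactive means activation under 40%.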 The list shows a part of the results.

target: Probable G-protein coupled receptor 32 (Homo sapiens) (UniProt O75388); experiment: qHTS for Agonists of Human Resolvin D1 Receptor DRV1; details: CHO-K1 GPR32 beta-arrestin PathHunter luminescence, 90 min; at 76.9 µM; active compounds read high; zero percent set by DMSO-only wells; further: 0% is about no effect
Chain of UniProt O75388 (O75388 whole entry, looked up): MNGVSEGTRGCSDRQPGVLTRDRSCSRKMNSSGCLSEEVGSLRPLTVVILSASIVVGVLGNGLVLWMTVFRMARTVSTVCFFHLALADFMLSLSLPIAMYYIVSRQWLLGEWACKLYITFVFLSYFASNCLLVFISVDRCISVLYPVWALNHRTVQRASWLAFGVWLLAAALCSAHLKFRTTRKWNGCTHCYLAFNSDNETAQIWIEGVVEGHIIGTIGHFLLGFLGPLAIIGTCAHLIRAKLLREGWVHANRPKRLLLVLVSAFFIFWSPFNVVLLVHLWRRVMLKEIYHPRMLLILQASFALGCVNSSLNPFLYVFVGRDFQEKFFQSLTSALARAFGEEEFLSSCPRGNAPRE
Outline: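 PathHunter beta-arrestin recruitment in CHO-K1 cells stably expressing ProLink-tagged GPR32. Cells were exposed to compound for 90 min at 37 C, then chemiluminescence was read after 1 h detection at ambient temperature; DMSO served as basal control.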

activation, inactive:
CCOc1ccc(NC(=O)CN(c2ccccc2OCC)S(=O)(=O)c2ccccc2)cc1 -5.86%
CCOc1cc2sc(N3CCC(C(=O)Nc4ccc(C(C)C)cc4)CC3)nc2cc1Br -26.9%
Cc1cccc(CNC(=O)Cc2csc3ccccc23)c1 -24.9%
COc1ccc(S(=O)(=O)N2CCN(Cc3nc4ccc(C)cc4o3)CC2)cc1OC -11.2%
O=C(O)Cc1c[nH]c2ccc(O)cc12 14.1%
Cc1cc(=O)n(Cc2cccc(Br)c2)c2c1c(C)nn2-c1ccccc1 -11.5%
Cc1cc(Cl)ccc1NS(=O)(=O)c1ccc2c(c1)CCN2S(C)(=O)=O 18.9%
Cc1ccc(Nc2nnc(-c3ccc(C)c(S(=O)(=O)N4CCCCC4)c3)c3ccccc23)cc1 4.03%
Cc1ccc(CCNC(=O)CN2C(=O)COc3ccc(S(=O)(=O)N4CCCCC4)cc32)cc1 -21.6%
CCOc1ccc2c(c1)[C@@H]1C=CC[C@@H]1[C@H](c1ccccc1Cl)N2 -14.2%
Cc1ccc(CNC(C)c2ccccc2)s1 (stereo not drawn) 0.248%
CC(C)(C)OC(=O)N1CCC(c2c(C(=O)Nc3ccc4c(c3)OCCO4)cnn2-c2ccc(F)cc2)CC1 -36.1%
COc1ccc(OC)c(NCc2cccn2-c2nnc(N3CCC(C)CC3)s2)c1 -18.5%
COc1ccc(C2C(=O)N(C3CCCCCC3)CC(=O)N2CCc2ccccc2)cc1 (stereo not drawn) -0.91%
O=C(NCCc1ccccc1)c1ccc2c(c1)N(Cc1ccccc1)C(=O)c1ccccc1S2=O (stereo not drawn) -15%
Cc1cccc(-c2nc3c(cnn3-c3ccccc3)c(=O)n2-c2cccc(Cl)c2)c1 5.53%
CN(C)c1ccc(CNC(=O)c2cc3ccccn3n2)cc1 5.13%
Cc1ccc(C)c(NC(=O)CCCN2C(=O)COc3ccc(C)cc32)c1 -30.3%
Cc1cc(C)cc(NC(=O)CSc2nnc(COc3ccccc3Cl)o2)c1 -5.61%
CCN(CC)S(=O)(=O)c1ccc2c(c1)c(=O)c(C(=O)N(C)Cc1ccccc1)cn2C -9.08%
CC(C)(C)OC(=O)N1CCC(c2c(C(=O)Nc3cccc(C(F)(F)F)c3)cnn2-c2ccc(F)cc2F)CC1 -29.9%
Cn1cnc2c(=O)oc3ccc(S(=O)(=O)N4CCN(c5ccccc5)CC4)cc3c21 -5.35%
Cc1nn(-c2ccccc2)c(-n2cccc2)c1C(=O)NCc1ccccc1Cl 2.24%
CC1CCN(S(=O)(=O)c2ccc3ncn(CC(=O)Nc4ccccc4C(F)(F)F)c(=O)c3c2)CC1 25.4%
CC(=O)Nc1cc(C(=O)NCc2ccc(F)cc2)ccc1Sc1ccc(C)cc1 -14.8%
CCOC(=O)CC(NC(=O)Cn1nnc(-c2ccc(C(F)(F)F)cc2)n1)c1ccccc1Cl (stereo not drawn) 8.07%
COc1ccc(C)cc1NC(=O)c1cc2c(s1)-c1ccccc1SC2 -17.6%
CCOC(=O)C1CCN(C(=O)CSc2n[nH]c(-c3ccccc3Cl)n2)CC1 -11.2%
CN(C)c1ccc(C(CNC(=O)Cc2ccc(Cl)cc2)N2CCOCC2)cc1 (stereo not drawn) -9.94%
O=C1CN(C(=O)c2ccc(Cl)cc2Cl)C(c2ccc(F)cc2)c2cc(F)ccc2N1 (stereo not drawn) -13%
CCn1cc(C(=O)NCCCN2CCC(C)CC2)c(=O)c2cc(S(=O)(=O)N(C)C3CCCCC3)ccc21 -2.66%
CCN(CC)CCNC(=O)c1ccc2c(c1)NC(=O)C(CS(=O)(=O)Cc1ccc(F)cc1Cl)N2 (stereo not drawn) 9.33%
COc1ccc(C(=O)c2oc3ccccc3c2NC(=O)COc2cccc(C)c2)cc1 2.04%
Cc1nn(C)c2c1c(-c1ccccc1)cc(=O)n2C(C)C(=O)NCCc1ccc(Cl)cc1 (stereo not drawn) -18.5%
CN1CCC[C@@H]1Cc1c[nH]c2ccc(CCS(=O)(=O)c3ccccc3)cc12 -0.895%
COc1ccc(S(=O)(=O)NCC(c2ccco2)N2CCN(c3ccccc3F)CC2)cc1OC (stereo not drawn) -22%
CC(C)c1nc2ccc(C(=O)NCc3ccc(F)cc3)cc2o1 -11.1%
COc1ccc(-c2ccc3c(N)c(C(=O)Nc4ccc(C)cc4C)sc3n2)cc1OC 20.8%
CCc1cccc(NC(=O)C2CCCN2S(=O)(=O)c2ccc3c(c2)n(C)c(=O)c(=O)n3C)c1 (stereo not drawn) 1.59%
CC1CCN(C(=O)c2ccccc2NC(=O)c2nsc3ccccc23)CC1 -12.9%
COc1ccccc1N1CCN(C(=O)c2nc(-c3ccc(C)cc3)n3c2CCCCC3)CC1 1.35%
COc1ccc(CNC(=O)CCc2c(C)nn(-c3ccc(N4CCCC4)nn3)c2C)c(OC)c1 -8.82%
CCOc1ccc(-c2cc(NC(=O)c3c(F)cccc3F)c(C(=O)OC)s2)cc1 2.19%
COc1ccc(-n2c(SCC(=O)Nc3cc(C)cc(C)c3)nc3c(oc4ccccc43)c2=O)cc1 -35.4%
COC(=O)c1c(NC(=O)C(C)Oc2ccc(Cl)cc2Cl)sc2c1CCCC2 (stereo not drawn) -6.79%
Cc1ccc(Cl)cc1NC(=O)c1cnn2c(C(F)F)cc(-c3ccccc3)nc12 5.52%
COc1ccc(NC(=O)c2cc(S(=O)(=O)N3CCCCC3)c[nH]2)cc1Cl 24.7%
Cc1cc(NC(=O)CC(C)C)cc(-c2nc3ncccc3o2)c1O -7.36%
CC(C)[N+](C)(CCOC(=O)C1c2ccccc2Oc2ccccc21)C(C)C -0.105% and -5.69%
Cc1cc(C)c(/C=C/c2onc(C)c2S(=O)(=O)N2CCC(C(=O)NCC(C)c3ccccc3)CC2)c(C)c1 (stereo not drawn) -12.1%
COc1cccc(C(=O)N2CC(=O)Nc3ccc(C)cc3C2c2ccc(F)cc2)c1OC (stereo not drawn) -10.1%
Cc1ccc(Nc2cc(=O)[nH]c(=O)[nH]2)cc1C -25.6%
COc1ccc(NC(=O)CC2C(=O)N(c3ccc(OC)cc3)C(=O)N2C2CCCCC2)cc1 (stereo not drawn) -4.44%
Cc1c(Cl)cccc1-n1c(SCC(=O)NCc2ccccc2)nc2n[nH]c(C)c2c1=N -6.98%
Cc1ccc(C(=O)N2c3ncnn3C3(CCCCC3)[C@@H]3CCCC[C@@H]32)cc1 -11.1%
COc1ccc(Cl)cc1NC(=O)CSc1nnc(C)n2c1cc1sccc12 0.483%
CCCOc1ccc(CNC(=O)C(C)n2nc(C)n3c(cc4occc43)c2=O)cc1 (stereo not drawn) -19.7%
Cc1ccc2oc(=O)c(-c3nc4ccc(C)cc4[nH]3)cc2c1 -1.21%
COc1ccc(OC)c(CNC(=O)CCc2c(C)nc3c(c2C)c(=O)n(C)c(=O)n3C)c1 -4.31%
CCC1CCCCN1S(=O)(=O)c1ccc(NC(=O)c2nc(SC)ncc2Cl)cc1 (stereo not drawn) -12.5%
Cc1oc2ncnc(N3CCCCC3)c2c1C(=O)Nc1cccc(Cl)c1C -29.8%
CCc1ccccc1NS(=O)(=O)c1ccc(-c2coc(C)n2)cc1 47%
Cc1nc2cc(-c3ccccc3)nn2c(C)c1CCC(=O)NCCc1ccccc1 37.4%
Cn1c2c(c(=O)n(C)c1=O)C(c1cc(Br)ccc1F)CC(=O)N2 (stereo not drawn) 0.371%
COc1ccc(Nc2cc(C(=O)NCCCN(C)c3ccccc3)c3ccccc3n2)c(OC)c1 -6.79%
CCCOCc1cc(CN2CCN(c3cccc(Cl)c3)CC2)c(O)c2ncccc12 -7.34%
Cc1cccc(C)c1NC(=O)c1c(C)oc2c1C1=NCCN1C=N2 20.4%
COc1ccc(CC(=O)Nc2ccc(-c3nc4ccccc4s3)cc2Cl)cc1OC 9.22%
Cc1ccc2[nH]c(CSc3nnc(NC(=O)COc4ccccc4C)s3)cc(=O)c2c1 7.98%
COC(=O)c1ccc(NC(=O)c2cc(S(=O)(=O)N3CCC(C)CC3)cn2C)cc1 -0.113%
CCOC(=O)c1ccc(Nc2nc(N)c3cc(OC)c(OC)cc3n2)cc1 4.48%
Cc1cccc(CCNC(=O)c2ccc3c(c2)nc2n3CCOC2)c1 -10.5%
CCCOc1ccc(NC(=O)CC2C(=O)N(c3ccc(C)cc3)C(=O)N2Cc2cccc(OC)c2)cc1 (stereo not drawn) -11.9%
COc1ccc(NC(=O)CN2C(=O)c3ccccc3Sc3ccc(C(=O)N4CCOCC4)cc32)c(OC)c1 -14.3%
O=c1c2cc3c(nc2ncn1Cc1ccc(Cl)cc1)CCCC3 -5.88%
CCOC(=O)C1CCN(c2c(C(=O)c3ccc(C)cc3)cnc3ccc(F)cc23)CC1 5.24%
CCOc1ccccc1NC(=O)CN1CCCN(Cc2cccc(Cl)c2)S1(=O)=O -15.4%
COc1cc(NC(=O)c2cccc(F)c2)ccc1NC(=O)c1cc2ccccc2o1 -3.17%
COc1cc(C(=O)OCc2cc(=O)n3nc(C(C)C)sc3n2)cc(OC)c1OC 12.2%
CCc1ccc(NC(=O)c2nnn(Cc3cccc(C(F)(F)F)c3)c2N)cc1 23.8%
COc1cccc(CNC(=O)c2ccc3c(c2)nc2n3CCCCC2)c1OC -18.2%

activation, active:
Cc1ccc(C(CC(=O)NCC2(c3ccccc3)CCCC2)c2ccccc2)c(O)c1 (stereo not drawn) 63.3%
Cc1cc(OCC(=O)Nc2cnn(CCCC(=O)O)c2)ccc1Cl 82.2%
